This note sets out measurements from article PMC4336329 (PLoS ONE, 2015).

The campaign covered roughly 310,000 compounds. About 2,200 (0.71%) showed an effect of 50% or more. The effect is printed as a negative number. This is one part of the list.

The target in this assay is human ether-à-go-go-related gene (hERG) potassium channel (human, UniProt Q12809). Kind of assay: primary screen, population patch clamp on CHO cells stably expressing hERG.
Sequence of human ether-à-go-go-related gene (hERG) potassium channel (Q12809 whole entry, looked up): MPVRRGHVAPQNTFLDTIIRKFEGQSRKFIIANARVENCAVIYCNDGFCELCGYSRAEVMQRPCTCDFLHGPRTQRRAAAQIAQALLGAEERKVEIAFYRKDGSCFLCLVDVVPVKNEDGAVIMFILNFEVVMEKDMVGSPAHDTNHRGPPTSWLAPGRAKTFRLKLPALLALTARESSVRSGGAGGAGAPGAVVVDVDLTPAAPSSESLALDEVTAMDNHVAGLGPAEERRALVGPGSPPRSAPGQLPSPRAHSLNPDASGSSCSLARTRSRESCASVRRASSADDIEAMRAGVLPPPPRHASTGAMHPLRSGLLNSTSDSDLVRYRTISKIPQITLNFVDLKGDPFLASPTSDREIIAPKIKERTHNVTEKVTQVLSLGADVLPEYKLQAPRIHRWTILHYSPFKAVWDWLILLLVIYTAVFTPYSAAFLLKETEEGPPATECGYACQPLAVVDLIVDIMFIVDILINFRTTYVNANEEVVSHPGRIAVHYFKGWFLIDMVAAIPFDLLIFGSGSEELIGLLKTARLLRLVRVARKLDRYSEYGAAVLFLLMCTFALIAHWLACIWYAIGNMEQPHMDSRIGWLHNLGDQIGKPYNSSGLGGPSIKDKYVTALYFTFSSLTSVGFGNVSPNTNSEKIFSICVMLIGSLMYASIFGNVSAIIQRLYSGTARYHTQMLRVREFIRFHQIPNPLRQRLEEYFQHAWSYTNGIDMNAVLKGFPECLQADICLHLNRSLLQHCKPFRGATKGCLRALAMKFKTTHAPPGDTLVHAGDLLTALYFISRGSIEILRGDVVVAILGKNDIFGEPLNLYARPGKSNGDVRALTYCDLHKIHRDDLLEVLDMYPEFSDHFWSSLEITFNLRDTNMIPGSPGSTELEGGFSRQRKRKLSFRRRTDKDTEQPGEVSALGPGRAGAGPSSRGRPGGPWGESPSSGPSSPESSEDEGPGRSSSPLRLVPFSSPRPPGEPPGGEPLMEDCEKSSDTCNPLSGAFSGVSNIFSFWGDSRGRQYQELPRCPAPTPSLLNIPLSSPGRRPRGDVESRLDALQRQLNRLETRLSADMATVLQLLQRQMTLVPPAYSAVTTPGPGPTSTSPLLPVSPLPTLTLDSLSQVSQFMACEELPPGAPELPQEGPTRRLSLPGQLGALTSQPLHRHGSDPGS
As for `CC1(C)CC(=O)C(Sc2ccccc2)=C(O)C1`, the “hERG current change (%, negative = inhibition) at 1uM” value worked out at 15.2%.
For `O=C(NCc1ccco1)/C(=C/c1ccco1)NC(=O)c1ccccc1` the value was 12.3%; for `CCOc1ccc(NS(=O)(=O)c2ccc3c(c2)CCN3C(=O)C2CCC2)cc1`, 12.4%.
In the case of `C[C@H](NC(=O)CCCOc1ccc(Cl)cc1Cl)c1nnc2ccccn12` it was -5.04%.
For `O=C(CCc1ccc(S(=O)(=O)N2CCOCC2)cc1)Nc1nccs1` the value was 5.43%.
As for `O=c1cc2oc3cc(O)c(O)cc3c(-c3ccccc3[N+](=O)[O-])c-2cc1O`, the “hERG current change (%, negative = inhibition) at 1uM” value was 8.61%.
In the case of `CC12CN3CC(C)(CN(C1)C3c1ccc(Cl)cc1)C2` (centres unmarked) it was 13.5%; in that of `Cn1nc(C(=O)N2CCOCC2)c([N+](=O)[O-])c1C(=O)N1CCOCC1`, -36.6%.
In the case of `Nc1nc(Nc2ccccc2)sc1C(=O)c1ccccc1` it was 4.24%.
For `Cc1cc(C)nc(OC(C(=O)O)C(OCC(C)C)(c2ccccc2)c2ccccc2)n1` (centres unmarked) the value was 15.9%.
Take `Cc1ccc(Nc2nnc(SCC(=O)Nc3ncc(C(F)(F)F)cc3Cl)s2)cc1`: the “hERG current change (%, negative = inhibition) at 1uM” value is recorded as 9.66%.
For `COc1ccccc1NC(=O)Cn1c(C)nc2c(sc(=S)n2Cc2ccco2)c1=O` the value was -8.44%; for `CCOC(=O)N1CCN(C(=O)CC(=O)Nc2ccc3nc4n(c(=O)c3c2)CCCCC4)CC1`, 10%.
For `CC(=O)Nc1ccc(OCCOc2ccc(/C=C3\C(=N)N4N=C(C)SC4=NC3=O)cc2)cc1`, the “hERG current change (%, negative = inhibition) at 1uM” value is on record as 15.5%.
For `NC(=O)C1(c2ccccc2)CCCN1C(=O)c1ccc(Br)cc1` (centres unmarked) the value was 5.44%; for `O=C(O)CCc1nn2c3ccccc3nc2n(CCN2CCCCC2)c1=O`, 12.3%.
Take `Cc1ccc(N(CC(=O)NCc2ccco2)C(=O)CCC(=O)Nc2nccs2)c(C)c1`: the “hERG current change (%, negative = inhibition) at 1uM” value came out at 4%.
For `CC(C)CNC(=O)N[C@@H](CC(C)C)C(=O)O` the value was 9.55%; for `CCOc1cc(C(=O)N2CCC(CC3CC(c4cccc(Br)c4)=NO3)(C(=O)NCC3CCCCC3)CC2)cc(OCC)c1OCC` (centres unmarked), 0.761%; for `CCCn1nnnc1NCc1cccc(OC)c1`, 14.5%.
In the case of `COc1ccc(NC(=O)CC(c2ccccc2)c2ccco2)cc1` (centres unmarked) it was 7.48%.
In the case of `Cc1ccc(S(=O)(=O)N2CC3(C)CN(S(=O)(=O)c4ccc(C)cc4)CC(C)(C2)C3)cc1`, the “hERG current change (%, negative = inhibition) at 1uM” value came to 7.77%.
In the case of `COc1cccc(NC(=O)C(Cc2ccccc2)n2cccc2)c1` (centres unmarked) it was 15%; in that of `O=C(CNS(=O)(=O)c1ccccc1)OCC(=O)c1cccc([N+](=O)[O-])c1`, -1.03%.
In the case of `O=C(CN1CCC(n2nnc3cc(F)ccc32)CC1)Nc1ccccc1N1CCOCC1` it was -42.2%.
For `COc1ccc(N(C)S(=O)(=O)c2cccc(C(=O)NCc3ccc4c(c3)OCO4)c2)cc1`, the “hERG current change (%, negative = inhibition) at 1uM” value was 11.5%.
For `CSc1ccc(CN(C)C(=O)CN2C(=O)NC3(CCCC3)C2=O)cc1` the value was 9.41%.
For `O=C(Nc1ccc(Nc2ccccc2)cc1)c1ccc(Br)o1` the value was 10.2%; for `CSCCC(NC(=O)c1ccc(C)o1)C(=O)O` (centres unmarked), 13%; for `O=C(N/N=C1\CCCc2c1[nH]c1ccc(Cl)cc21)c1ccncc1`, 3.55%.
In the case of `CCOC(=O)N1CCN(c2cc(=O)n(-c3ccccc3C)c(=O)[nH]2)CC1` it was 10.2%.
Take `Cc1ccc(C2=CSC3=NS(=O)(=O)CCN23)cc1C`: the “hERG current change (%, negative = inhibition) at 1uM” value stood at 3.61%.
As to `COc1ccc(C(=O)NCC(=O)O)cc1`, the “hERG current change (%, negative = inhibition) at 1uM” value is 11.9%.
Regarding `C=C[C@@H]1C2=CCOC(=O)C2=CO[C@H]1O[C@@H]1O[C@H](CO)[C@@H](O)[C@H](O)[C@H]1O`, the “hERG current change (%, negative = inhibition) at 1uM” value was 12.6%.
For `CC1(C)Cc2c(C#N)c(N3CCN(C(=O)c4ccccc4)CC3)nc(-c3ccco3)c2CS1` the value was 11.7%.
For `COc1ccc(CCN2C(=O)CC(NNC(=O)c3ccccc3Br)C2=O)cc1OC` (centres unmarked) the value was 8.86%; for `O=C(Nc1ccccc1-c1ccccc1)NC1CC2CCCC(C1)N2Cc1ccc(F)cc1` (centres unmarked), -12.2%; for `Cc1ccc(OCc2ccc([N+](=O)[O-])cc2)c([N+](=O)[O-])n1`, -2.94%.
In the case of `CC1=CC(C)(C)N2C(=O)C(=Nc3ccc(O)cc3)c3cccc1c32` it was 4.91%; in that of `O=c1[nH]c(CSc2nnc(-c3ccccc3)n2C2CCCCC2)nc2ccccc12`, 0.571%.
In the case of `CCCC(=O)N1CCN(c2ccc(NC(=O)c3ccco3)cc2)CC1`, the “hERG current change (%, negative = inhibition) at 1uM” value was found to be 9.66%.
`CC(=O)Nc1ccc(C(=O)Nc2nc(-c3ccccn3)cs2)cc1`: the “hERG current change (%, negative = inhibition) at 1uM” value is 18.7%.
In the case of `CCn1c(=O)c2sccc2n(Cc2cccc(C)c2)c1=O`, the “hERG current change (%, negative = inhibition) at 1uM” value amounted to 3.66%.
For `CN(C)C1=NC[C@H](Cc2ccccc2)N1CCc1ccc(F)cc1` the value was -20.3%; for `Cc1ccc(NC(=O)CSc2nnc(/N=C/N(C)C)s2)cc1`, 6.96%; for `CCCCOC(=O)c1ccc(NC(=O)/C=C/c2cccs2)cc1`, 1.76%.
Take `CC(Sc1nc(N)cc(N)n1)C(=O)NCCC1=CCCCC1` (centres unmarked): the “hERG current change (%, negative = inhibition) at 1uM” value is recorded as 19%.
On to `COc1ccc(NC(=O)Nc2cccnc2)c(OC)c1`, for which the “hERG current change (%, negative = inhibition) at 1uM” value is listed as 18.4%.
For the compound `COc1ccc(CC(C(=O)Nc2cccc(F)c2)c2nn[nH]n2)c(OC)c1` (centres unmarked), the “hERG current change (%, negative = inhibition) at 1uM” value was determined as 3.05%.
In the case of `CC(C)CN(C(=O)COC(=O)Cc1ccc(Cl)cc1)c1c(N)n(Cc2ccccc2)c(=O)[nH]c1=O` it was 2.58%; in that of `O=C(N/C(=C\c1ccc([N+](=O)[O-])cc1)C(=O)N1CCOCC1)c1cccc(Br)c1`, -79%.
For `Cc1c(NC(=O)/C(C#N)=C/c2cccs2)c(=O)n(-c2ccccc2)n1C` the value was 6.92%; for `Cc1nn(Cc2ccc(F)cc2Cl)c(C)c1[N+](=O)[O-]`, 11.4%; for `CCOC(=O)c1c(-c2ccc(OC)cc2)oc2ccc(O)cc12`, 8.36%.
In the case of `Cc1nc2cc(S(=O)(=O)N3CCC(C(=O)O)CC3)ccc2n1C1CCCC1` it was 11.6%; in that of `O=c1c2ccccc2nnn1CSc1nnnn1-c1ccc(O)cc1`, -13.2%.
`CC1SCC(=O)N(CC(=O)NC2CCCCC2)C1=O` (centres unmarked): the “hERG current change (%, negative = inhibition) at 1uM” value stood at 16.6%.
As to `OCC(O)CNC(=S)NC1CCCCC1` (centres unmarked), the “hERG current change (%, negative = inhibition) at 1uM” value is reported as 11.4%.
In the case of `C=CCn1c(O)c(/C=C2\C=Nc3ccccc32)c(=O)[nH]c1=O` it was 10.1%.
In the case of `CCOc1ccc(C2CC(=O)NC(SCC(=O)OC)=C2C#N)cc1` (centres unmarked) it was 8.09%; in that of `CC1CCN(S(=O)(=O)c2ccc3c(ccn3CCC(=O)NC(C)C)c2)CC1`, 11.9%.
As to `O=C(O)c1cc(S(=O)(=O)N2CCN(C(=O)c3ccco3)CC2)c(Cl)cc1Cl`, the “hERG current change (%, negative = inhibition) at 1uM” value turned out to be 22.5%.
As to `COCc1cc(=O)n2[nH]c(-c3ccsc3-n3c(C)ccc3C)cc2n1`, the “hERG current change (%, negative = inhibition) at 1uM” value is recorded as 5.79%.
For `Cc1ccnc(NS(=O)(=O)c2ccc(NC(=O)c3ccc(Cl)cc3[N+](=O)[O-])cc2)n1` the value was 11.1%; for `O=c1[nH]c2cc3c(cc2cc1C(c1nnnn1Cc1ccccc1)N1CCCc2ccccc21)OCO3` (centres unmarked), 19.7%.
On to `CCOC(=O)c1c(N)nn(C(=O)c2ccccc2)c1-c1ccccc1`, for which the “hERG current change (%, negative = inhibition) at 1uM” value is 13.3%.
In the case of `O=C(NCc1cccnc1)c1ccc(Cl)cc1[N+](=O)[O-]` it was 7.05%.
For the compound `CCCn1c(=O)c2c(nc3n2CCCN3CCc2ccccc2)n(C)c1=O`, the “hERG current change (%, negative = inhibition) at 1uM” value is -6.26%.
In the case of `CC(Oc1cc2oc(=O)c3c(c2cc1Cl)CCC3)C(=O)NCc1ccncc1` (centres unmarked) it was 9.16%.
For `CCn1cnc2cc([N+](=O)[O-])ccc21` the value was 7.74%; for `O=C(N/N=C/c1coc2ccccc2c1=O)c1cn(-c2ccccc2)nc1-c1ccc(F)cc1`, 11.5%.
For the compound `Cc1ccc(C(=O)NCC(=O)OCc2cccc(Br)c2)cc1`, the “hERG current change (%, negative = inhibition) at 1uM” value is recorded as 13.7%.
For `COc1ccc(-n2cnc3cc(NCc4ccco4)ccc32)cc1` the value was -5.15%; for `C=C(C)C(=O)Nc1cccc(C2=NOC3(C2)C[C@H](C(N)=O)N(C(=O)c2ccccc2)C3)c1` (some centres unmarked), 12.5%; for `CSc1c(CC(=O)Nc2ccccc2)n(C)c2ccccc12`, 7.41%.
Regarding `Cn1nc(C(=O)Nc2cccc(C(F)(F)F)c2)ccc1=O`, the “hERG current change (%, negative = inhibition) at 1uM” value is given as -0.902%.
For `COc1ccc(/C=N/NC(=O)c2ccco2)cc1OCc1ccccc1`, the “hERG current change (%, negative = inhibition) at 1uM” value was determined as 11.5%.
With `COc1c(Cl)cc(C(=O)O)cc1Cl`, the “hERG current change (%, negative = inhibition) at 1uM” value is 3.48%.
Take `CC(C)C[C@H](NC(=O)N1CC(=O)Nc2ccccc21)C(=O)N[C@H](C(=O)O)c1ccccc1`: the “hERG current change (%, negative = inhibition) at 1uM” value was 9.24%.
Consider `COc1cccc(CNS(=O)(=O)c2ccc3c(c2)C(C)(C)C(=O)N3C)c1`, for which the “hERG current change (%, negative = inhibition) at 1uM” value is -2.24%.
For `CC(=O)Nc1ccc(S(=O)(=O)N2CCN(CCN3CCOCC3)CC2)cc1Cl`, the “hERG current change (%, negative = inhibition) at 1uM” value was determined as 10.4%.
With `O=C(COC(=O)C1(c2ccccc2F)CCCC1)NC1CCS(=O)(=O)C1` (centres unmarked), the “hERG current change (%, negative = inhibition) at 1uM” value turned out to be 15.3%.
As for `Cc1cccc(N2C(=O)Cc3ccccc3C2=O)c1`, the “hERG current change (%, negative = inhibition) at 1uM” value came out at 2%.
In the case of `c1cnc2ccc(-c3ccc4ncccc4c3)cc2c1` it was 11.9%; in that of `O=C(/C=C/c1ccccc1)Nc1ccc(C(=O)N2CCCCC2)cc1`, -0.47%; in that of `C[C@H]1C=C(C(=O)NC2CC2)O[C@@H](OCc2ccc(CO)cc2)C1`, 6.19%.
